Where “and” joins values, the source holds several entries; their conditions need not be identical. Equal values may be shown once.
Tests used:
[1] = molecular target: T1, recombinant human tau protein, isoform 2N4R (Tau-441) (human, UniProt P10636-8 1-441); experiment: SPR (Biacore 3000), over immobilized Tau-441
T1 construct: Bought
Procedure: (§1) Surface Plasmon Resonance (SPR): All binding assays for DH-Tau15 and Fc-Tau15 were carried out at 25° C. on a Biacore™ 3000 instrument (GE Healthcare). […] The running buffer for all SPR experiments was HBS-EP+ (10 mM HEPES, 150 mM NaCl, 3 mM EDTA, pH 7.4, 0.05% surfactant P20; GE Healthcare). The antibodies were injected at 20 μL/min for 2 min with a dissociation time of 30 min. Data was analyzed using the Biacore 3000 BIAevaluations software Version 4.1.

[2] = molecular target: T1, recombinant human tau protein, isoform …; experiment: SPR (Biacore 3000), over immobilized Tau-441, duplicate injection
Procedure: as §1

fold slower off rate than monomeric Tau15 [1]: ~1000 fold
koff [2]: 6.73e-05 s⁻¹ and 7.02e-05 s⁻¹
B1: Tau15-Fc fusion (Fc-Tau15) (Fc fusion)
chain: QVKLEESGGGLVQPGGSLRLSCAASGFTFSNFAMTWVRQSPGKGLEWVSAIDNDGGRTSYSDSVKGRFTISRDNAKNTLYLQMNSLKPEDTAMYYCAAMNLATRKWELWGQGTQVTVSSA[in this place human IgG1 Fc with K218I (EU numbers)]
notes: Tau15 VH fused to human Fc; expressed in HEK-293-6E cells, purified on protein A; dimer by SEC; also called VH-Fc fusion
